The other results are listed elsewhere or left out.
These sequences were tested on PfAP2-HC AP2 domain (GST-tagged) (assay: gcPBM binding intensity (ln(normalized median fluorescence intensity)); higher = stronger DNA binding).
Outline: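 The highest Masliner-normalised natural-log median intensity across replicate spots of either probe orientation is reported as binding intensity. GST-tagged P. falciparum DNA-binding domains expressed in E. coli were applied for 1 h to an Agilent 4 × 180k array of primer-extended double-stranded 36-bp intergenic genomic probes plus negative controls, and bound protein was detected with Alexa488 anti-GST antibody and scanned at 488 nm.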

Row | Sequence | gcPBM binding intensity (ln)
1 | TCTATTTATATGTATTGTACAATATAGATGTGTATT [XGTACX_site5646] | 9.88
2 | GTAATACACAGACACACACACATACACATATTTATA [CACACA_site7313] | 10.5
3 | AAATTAAAAATAATTACACACATAGAAAAATTATAT [CACACA_site2275] | 9.91
4 | TTCTATATATAATATTGTACTTAATTATTTTATTTT [XGTACX_site2701] | 9.83
5 | AGTGTATATAGAAACATACACACATATTAATTTTAC [CACACA_site3127] | 9.78
6 | ATATATATGCATTCAAGTACAAAAATATATGTTAAA [XGTACX_site910] | 9.72
7 | TAGCTGTTCAAAAAATGTACATATATAATATATATA [XGTACX_site5842] | 9.45
8 | TACACAAACGTTATACGTACACAGGTTTTTCTTTTA [XGTACX_site5427] | 9.64
9 | ATAATAAGAAAAAAAAAAAAAAAAAAAAAAAAAAAA [TGCATGCA_negctrl_site377] | 8.9
10 | ATATTGAAATGTTAATAGAAATATATGGTTAAATTG [XGTACX_negctrl_site212] | 9.66
11 | ATGTATATAAATAGGTGTACATATAAGGTGTTAAGC [XGTACX_site5465] | 10
12 | ATTTTATTTTATTAAGTGCAAAAAAAAAAAAAGAAA | 9.47
13 | ACCTCTCATATGTTATAAACAAAATGAAAATTTCAT [XGTACX_negctrl_site303] | 9.55
14 | TGTACAATATAAGGAGCACACAAAAATGGATAAATA [CACACA_site8216] | 10.2
15 | ATATGGCATAAAACATGTACATGTTCATAAATATAT [XGTACX_site1924] | 9.8
16 | AGAATTAAAATAATACGTACACACATGTATAATACA [XGTACX_site1878] | 10.3
17 | ATTATATCTATAATATGTACATATTATAATATATAT [XGTACX_site3211] | 9.54
18 | AATTGTTAATGGTACGAACACACATATAAAGATGCA [CACACA_site2043] | 9.93
19 | TATATATAAGAAAAAAGTACAGATATATATATATTC [XGTACX_site4788] | 9.86
20 | TATACAGACAGACACACACACATATATATATATATA [CACACA_site1734] | 10.2
21 | TTTTAAGAAAAAAAATGTACACATGAAAATAGTGAA [XGTACX_site5898] | 9.5
22 | AAATTTTCACTTCAAAAACACACGTATTTTTTTCCT [CACACA_site3813] | 9.69
23 | TGTTATATTATAACTACACACGTATTATGTTATATC [CACACA_site839] | 9.86

Row | Sequence | gcPBM binding intensity (ln)
24 | GCTAGTTCATAAAATTGTACAAAAAAAAAAAAAAAA [XGTACX_site2223] | 9.07
25 | TTTTTTATCTAATATTTTATAATTTTCATAAATTTG [GTGCAC_negctrl_site534] | 9.48
26 | AAAAAAAAAAAAAAAAGTACATGCCATATATTTTCA [XGTACX_site4580] | 9.45
27 | AAATAATCTATACACAACGTATAAGAATAATATATG [TGCATGCA_negctrl_site422] | 9.82
28 | AATAGAAACATTTTACATGTATATATAATTTTTTTT [XGTACX_negctrl_site190] | 9.64
29 | TAAATAATGTTAAACACACATACCGATATATAATTA [CACACA_site2711] | 9.79
30 | AAAAAAAAGTTGTAAGTGCATGTATATAATAATATT | 9.75
31 | TGATCACATAATAAATGTACAAAAAAAAATTAATAA [XGTACX_site5867] | 9.54
32 | TTCTTTAAAATGATATACGTTATAAATATATATATA [XGTACX_negctrl_site256] | 9.44
33 | AGAACTTAATGCTGCACACAAAAAAAAGGAAAAATA [CACACA_site1353] | 9.98
34 | TTTAGATAATTCATTACACACATGTATATATATATA [CACACA_site3483] | 9.84
35 | TAAGGAAGAAGAAAAAGTACTAAAGGTATAAATGCG [XGTACX_site2628] | 9.66
36 | GCAACCTTGTGCAAATGTACAAAAAAAAAAAAAAAA [XGTACX_site679] | 9.4
37 | TTTTTGTTATTTTTAGTGCAGAAGAATAAATTTTAA | 9.28
38 | AAAATTTCTTATTTTGTACACACAATAAATATTCAC [CACACA_site8464] | 9.8
39 | TTTTTATTGTTGCTATATTTATAACAATTTATCATA [GTGCAC_negctrl_site75] | 9.56
40 | AAAAAAAAAATATATTGTACAATATTGTAGCTATAT [XGTACX_site7180] | 9.7
41 | TTCAATAGTAAGTATACACACATATAAATAAATAAA [CACACA_site7295] | 9.86
42 | TATATATATGGACACACACACATATATATATATTTT [CACACA_site5409] | 10.3
43 | TATATATAATATAGTGCATGTAAAAAATAAACCATG [TGCATGCA_site932] | 9.73
44 | TATAAATTAAAACATTGTACATTTTTATTATTATGT [XGTACX_site579] | 9.72
45 | TATCTTACTTTTTGCACACACTAATATTATTGTTTA [CACACA_site4990] | 10.1
46 | ACAACTATTCATCATAGTACACGCATGATATATATA [XGTACX_site1539] | 9.73

Row | Sequence | gcPBM binding intensity (ln)
47 | AAAATTAATATCTTGGTGCATTTTTTAATATTATTA [GTGCAC_site9638] | 9.63
48 | CAATTTATAAAGAAAACACACATATACATAAATACA [CACACA_site4829] | 10.1
49 | AATTATATATAAAGAAGTACTATTTCAAGGAGTTTT [XGTACX_site3837] | 9.63
50 | AATAAAACATCATCATGTACAAAATTCGTCTTTGTA [XGTACX_site4821] | 9.61
51 | TCAAATTTTCAACATTGTACATAAATGTATAAATAT [XGTACX_site6042] | 9.47
52 | CAAAATATATATGACACACACAAAAAAAGTATATTA [CACACA_site1589] | 10.1
53 | ATGTCACAATTTTTCACACACAAAATTTAAATACAT [CACACA_site5168] | 9.9
54 | TATTATTATATATATAGTACATAAAATATAAAAAAA [XGTACX_site2060] | 9.63
55 | TTTTTTAAATTATATTATAGCAAATAAATATTAAAA [CACACA_negctrl_site1655] | 9.03
56 | TTTTTTTTTTAAATGTGTCCTCATTATAATATATGT [XGTACX_site5331] | 9.66
57 | TAATTATGCGGACACACACACACACCCAACTAAAAA [CACACA_site5427] | 10.9
58 | GCATTATTATATATTTGTACATATTTTTTTTTAAAA [XGTACX_site5436] | 9.68
59 | TTTTTATTTTCATATGTGCACTTATATATATATATA | 9.89
60 | TTTTTATATAAGAAAAAATTATAACAATTTGTTAAT [XGTACX_negctrl_site422] | 9.24
61 | TATTGATATATATATATATATATATGTATATACTTA [GTGCAC_negctrl_site111] | 9.78
62 | TTCGCTGTTTTAATTAGTACTTATATATAATATTAT [XGTACX_site1149] | 10
63 | CTAAACCTTTTGAGCACACATATATATATATATATA [CACACA_site1782] | 9.7
64 | TTTTATGTTTTAAAATGTACGTGTCAATGAATAAGT [XGTACX_site6239] | 9.51
65 | AAATTTTAATTAGACTGTACACATTTTAGAATAATT [XGTACX_site4819] | 9.41
66 | TGAATATTCATATGCACACAAATTAATATACATAAT [CACACA_site442] | 9.79
67 | TATTATAGTCCGACTTTTTAATTTCTTTATTGTTTT [CACACA_negctrl_site1381] | 9.7
68 | TTTTATTTTTAAAATTGTACATTATTATTGTTATTT [XGTACX_site1439] | 9.74
69 | TATTTGTTCTGATCCTTTTATTCAACTTTTTTTTTT [CACACA_negctrl_site978] | 9.72

Row | Sequence | gcPBM binding intensity (ln)
70 | GGCTAAAAGTTGCACACACACAAAAAAAAAAAAAAA [CACACA_site7531] | 9.92
71 | ACCTTAATTATAATAACACACGAAAAGTGGACACAT [CACACA_site1750] | 9.86
72 | TTTAATTATTAAATGGTGCACTTGAAATATAAAAAT | 9.52
73 | CTTTTAATGGTGTAAAGTACTTTCTTAAGGTTCAAA [XGTACX_site8423] | 9.36
74 | TATACAACGTTAAGCACACACAAAAAAAATTTAATA [CACACA_site3086] | 10
75 | ATATATGGGGCGCAGGAAAAGAGTTTTGGAAATAAA [CACACA_negctrl_site1265] | 9.63
76 | AAGTTATATAAAGGAACACACATTTGATTTTATTTT [CACACA_site6814] | 9.79
77 | TGTAATCTGGAGAAAAGTACACAGTATCTGGTAGCT [XGTACX_site2039] | 9.58
78 | ATTTAAATTATAAAATGTACATTTAACAAATTTTAT [XGTACX_site770] | 9.48
79 | TAACATTATATATATTGTACATAGTAAATATTATAT [XGTACX_site5421] | 9.57
80 | ATTATTTATTATTTCTGTACGTATAAAAATAACATT [XGTACX_site1671] | 9.62
81 | ATAAAACATAAAAATCGTACAAAGGAGGATATAAGG [XGTACX_site420] | 9.94
82 | TGGAGGTCAGTTCACAGTACCCAGAAAACTCTACGA [XGTACX_site2561] | 9.18
83 | AAAATGATGTTAATTACACACATCATCTCATAAACA [CACACA_site3017] | 9.79
84 | TTTTTTTTGGTTTTCATGCACACAATTTATAAATCT [CACACA_site3107] | 10
85 | AAAGTAAAAAAAAAAACATGCACATATTTACTTTAT [TGCATGCA_site849] | 9.8
86 | AAGGGAATATACCTTACACACAAAAATGCAGATATA [CACACA_site1451] | 9.96
87 | CTAATCAAAATAAATTAACACACAATTTTAATATTG [CACACA_site7887] | 9.54
88 | ATATACTTACATATTACACACAATATTTTTAAATGT [CACACA_site3627] | 9.97
89 | GTTAATATACTTAATACACACACGAATATATATAAA [CACACA_site1181] | 9.99
